From the antibiotic and cytotoxicity screens of Wong et al. (2023)
This is one part of the list.

What follows are molecules tested on HSkMC (human skeletal muscle cells) (assay: cytotoxicity call (relative viability < 0.9)). Conditions: 10 µM.

Structure (SMILES) | cytotoxicity call
CC(C)NC(=O)Nc1ccc2c(c1)CC(=O)N([C@H](C)CO)C[C@H](C)[C@@H](CN(C)C(=O)NC1CCCCC1)O2 | inactive
COc1ccc(CNC(=O)C[C@H]2CC[C@@H]3[C@H](COc4ccc(NC(=O)C5CC5)cc4C(=O)N3C)O2)cc1 | inactive
C[C@@H]1CN([C@@H](C)CO)C(=O)c2cc(NS(=O)(=O)c3ccc(Cl)cc3)ccc2O[C@@H]1CN(C)Cc1ccc(Oc2ccccc2)cc1 | active
CCOC(=O)OC(C)OC1=C(C(=O)Nc2ccccn2)N(C)S(=O)(=O)c2ccccc21 (stereo unspecified) | inactive
C[C@H]1CN([C@@H](C)CO)C(=O)Cc2cc(NC(=O)Cn3cnnn3)ccc2O[C@H]1CN(C)Cc1ccc(C(=O)O)cc1 | inactive
Cc1noc(C)c1S(=O)(=O)Nc1ccc2c(c1)CC(=O)N([C@H](C)CO)C[C@H](C)[C@@H](CN(C)C(=O)NC1CCCCC1)O2 | inactive
O=C(O)CCc1nc(-c2ccccc2)c(-c2ccccc2)o1 | inactive
CC(C)=CCC/C(C)=C/C(=O)O | inactive
CNC[C@H]1OCCCC[C@@H](C)Oc2ccc(NC(=O)Nc3cccc4ccccc34)cc2C(=O)N([C@@H](C)CO)C[C@H]1C | inactive
CCOc1ccc2ccccc2c1C(=O)NC1C(=O)N2C1SC(C)(C)C2C(=O)[O-].[Na+] (stereo unspecified) | inactive
C[C@@H]1CN([C@@H](C)CO)C(=O)c2cc(NC(=O)Nc3ccc4c(c3)OCO4)ccc2O[C@@H](C)CCCCO[C@H]1CN(C)Cc1ccccc1 | inactive
Cc1noc(C)c1NC(=O)N(C)C[C@@H]1OCCCC[C@H](C)Oc2ccc(NS(=O)(=O)c3ccccc3)cc2C(=O)N([C@H](C)CO)C[C@@H]1C | inactive
CCCN(C)C[C@H]1OCCCC[C@H](C)Oc2ccc(NC(=O)Nc3ccc(F)cc3)cc2C(=O)N([C@@H](C)CO)C[C@H]1C | inactive
CCCCCC(CC(=O)O)C(=O)O (stereo unspecified) | inactive
CC1(C)NCS[C@H]1C(=O)O | inactive
O=C(C[C@H]1CC[C@@H]2[C@H](COC[C@H](O)CN2S(=O)(=O)c2ccc(Cl)cc2)O1)NCCN1CCCC1 | inactive

Structure (SMILES) | cytotoxicity call
Cc1noc(C)c1S(=O)(=O)Nc1ccc2c(c1)C(=O)N([C@@H](C)CO)C[C@@H](C)[C@H](CN(C)C(=O)Nc1cccc3ccccc13)OCCCC[C@H](C)O2 | inactive
CN(C)CCOc1ccc(C#N)cn1 | inactive
CCC1(O)CC2CN(CCc3c([nH]c4ccccc34)C(C(=O)OC)(c3cc4c(cc3OC)N(C)C3C(O)(C(=O)OC)C(OC(C)=O)C5(CC)C=CCN6CCC43C65)C2)C1.O=S(=O)(O)O (stereo unspecified) | inactive
Cc1noc(C)c1NC(=O)Nc1cccc2c1O[C@H](CN(C)C(=O)NC(C)C)[C@H](C)CN([C@H](C)CO)C2=O | inactive
COc1ccc(CN(C)C[C@@H]2OCCCC[C@H](C)Oc3ccc(NC(=O)c4ccccc4)cc3C(=O)N([C@H](C)CO)C[C@H]2C)cc1 | inactive
C[C@H]1CCCCO[C@@H](CN(C)C(=O)Nc2ccc(F)cc2)[C@@H](C)CN([C@@H](C)CO)C(=O)c2cc(NS(=O)(=O)c3ccccc3)ccc2O1 | inactive
Cc1cc(C(=O)Nc2cccc3c2O[C@H](CN(C)C(=O)Nc2c(C)noc2C)[C@H](C)CN([C@H](C)CO)C3=O)n(C)n1 | inactive
C[C@@H]1CN([C@H](C)CO)C(=O)c2cc(NC(=O)CCC(F)(F)F)ccc2O[C@@H](C)CCCCO[C@@H]1CN(C)Cc1ccc2c(c1)OCO2 | inactive
COc1ccc(NC(=O)N(C)C[C@@H]2Oc3ccc(NC(=O)CCCCCC(=O)Nc4ccccc4N)cc3C(=O)N([C@H](C)CO)C[C@H]2C)cc1 | inactive
C[C@@H]1CN([C@H](C)CO)C(=O)c2cc(NC(=O)Nc3ccc4c(c3)OCO4)ccc2O[C@@H](C)CCCCO[C@@H]1CN(C)S(=O)(=O)c1cccs1 | inactive
C[C@@H]1CNS(=O)(=O)CO1 | inactive
C[C@H](NC(=O)N(C)C[C@@H]1OCc2ccccc2-c2c(n(C)c3ccccc23)C(=O)N([C@H](C)CO)C[C@@H]1C)c1ccccc1 | inactive
CNC(=NCc1ccc(OC)cc1)NC | inactive
C[C@@H]1CN([C@@H](C)CO)C(=O)c2cc(NC(=O)Nc3cccc4ccccc34)ccc2O[C@@H](C)CCCCO[C@H]1CN(C)S(=O)(=O)c1ccc(F)cc1 | inactive
COc1ccc([Si](C)(C)[C@H]2[C@H](CCOC(=O)NCCCCCC(=O)NO)O[C@@]3(C(=O)N(Cc4ccccc4)c4ccc(I)cc43)[C@@H]2C)cc1 | inactive
